# Source: PubChem BioAssay AID720709 (National Center for Advancing Translational Sciences (NCATS), 2013)
# The whole screen tested about 360,000 compounds, of which about 520 (0.14%) were called active. Inconclusive means that the source gave no clear call. Such entries were picked first, then a sample of the others. The call rests on the fitted dose curve; in most records, active means well fitted inhibition curve with a large enough effect; inconclusive means small, poorly fitted or top-dose-only effect; inactive means no such curve, though single readings can be large or run the other way. Potencies of inconclusive entries are left out as doubtful fits.
# Target: Rap guanine nucleotide exchange factor 3 (Homo sapiens) (UniProt O95398)
# Chain of UniProt O95398 (O95398 whole entry, looked up): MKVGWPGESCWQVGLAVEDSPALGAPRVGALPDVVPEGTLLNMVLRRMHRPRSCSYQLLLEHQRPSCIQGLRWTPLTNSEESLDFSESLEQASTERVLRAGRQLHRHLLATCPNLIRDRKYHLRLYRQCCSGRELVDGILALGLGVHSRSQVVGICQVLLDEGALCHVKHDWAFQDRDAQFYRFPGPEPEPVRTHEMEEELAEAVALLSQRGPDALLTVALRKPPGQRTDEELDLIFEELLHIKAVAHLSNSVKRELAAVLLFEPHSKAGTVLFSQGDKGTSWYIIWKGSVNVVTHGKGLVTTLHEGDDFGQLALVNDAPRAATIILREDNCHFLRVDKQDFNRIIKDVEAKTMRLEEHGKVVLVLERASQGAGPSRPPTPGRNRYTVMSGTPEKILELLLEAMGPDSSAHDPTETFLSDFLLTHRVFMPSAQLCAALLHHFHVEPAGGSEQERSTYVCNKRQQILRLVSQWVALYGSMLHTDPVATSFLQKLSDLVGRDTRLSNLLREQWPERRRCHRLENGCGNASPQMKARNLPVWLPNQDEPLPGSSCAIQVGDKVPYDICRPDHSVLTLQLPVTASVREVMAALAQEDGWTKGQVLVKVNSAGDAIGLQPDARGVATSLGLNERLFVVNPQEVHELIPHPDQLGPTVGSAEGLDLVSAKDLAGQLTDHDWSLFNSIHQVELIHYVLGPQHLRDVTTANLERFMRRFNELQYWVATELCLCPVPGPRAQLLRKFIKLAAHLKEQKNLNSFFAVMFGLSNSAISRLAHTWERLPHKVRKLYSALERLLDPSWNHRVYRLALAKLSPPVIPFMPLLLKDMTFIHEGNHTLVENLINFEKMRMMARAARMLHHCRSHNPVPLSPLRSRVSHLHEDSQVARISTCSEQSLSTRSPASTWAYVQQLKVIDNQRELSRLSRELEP
# Experiment: qHTS for Antagonist of cAMP-regulated guanine nucleotide exchange factor 3 (EPAC1): primary screen; further: nearly all actives have a fitted effect of over 50% in size;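 on activity change, negative = inhibition: plate controls were vehicle for no effect and positive control for full effect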
# Settings: EPAC1 GEF assay, Rap1b-BODIPY-GDP exchange fluorescence; activity change, negative = inhibition: at 115 µM (top of the series)
# Potency means the concentration at half of the fitted maximal effect; tags describe the fitted curve by direction and shape.
SMILES,Potency,"activity change, negative = inhibition"
O=C(NNc1ccc([N+](=O)[O-])cc1[N+](=O)[O-])c1ccco1,"inconclusive [inhibitor, single point]",–
Cn1c(=O)c(C(=O)NNC(=O)c2ccccc2Br)c(O)c2ccccc21,"inconclusive [inhibitor, partial curve]",–
CCOc1ccc(Nc2ccc(N)c(S(=O)(=O)O)c2)cc1,"inconclusive [inhibitor, full curve]",–
CSc1ccccc1NC(=O)COC(=O)c1ccc(O)cc1,"inconclusive [inhibitor, partial curve]",–
O=C(Nc1ccc(N2CCN(C(=O)c3cccs3)CC2)cc1)c1ccccc1Cl,"inconclusive [inhibitor, partial curve]",–
CC(=Nc1ccccc1)C1=C(O)CC(C)(C)CC1=O,–,inconclusive: 1.59% [inhibitor]
COc1cc(NCCCC(C)N)c2ncccc2c1 (centres undefined),"inconclusive [inhibitor, single point]",–
COc1cccc(CN(C)CC(O)COC(c2ccccc2)c2ccccc2C)c1 (centres undefined),"inconclusive [inhibitor, partial curve]",–
O=C(/C=C\c1ccco1)Nc1nc(-c2ccc3ccccc3c2)cs1,"inconclusive [inhibitor, full curve, poor fit]",–
Cc1cccc(C)c1NC(=O)C1(C)CN(S(C)(=O)=O)CC(=O)N1CCc1ccc(O)cc1 (centres undefined),–,inactive: -16.7%
CCc1cccc(C)c1NC(=O)CSc1nc2ccccc2n1CC(=O)N(C)C,–,inactive: 6.46%
COc1ccc(NC(=O)/C(C#N)=C/c2cc(C)n(-c3ccc(N4CCOCC4)c([N+](=O)[O-])c3)c2C)cc1,"inconclusive [inhibitor, single point]",–
N#C/C(=C\c1ccc(Sc2nc3ccccc3[nH]2)o1)c1ccccc1,–,inactive: -7.04%
CC1(C)Cc2c(C#N)c(N3CCN(C(=O)c4ccco4)CC3)nc(-c3ccco3)c2CS1,"inconclusive [inhibitor, partial curve]",–
C[C@@H]1CN([C@@H](C)CO)S(=O)(=O)c2ccc(Br)cc2O[C@H]1CN(C)C(=O)c1ccccc1,"inconclusive [inhibitor, partial curve]",–
COC(=O)c1ccc(NC(=O)CSc2nnc(Cc3cccn3C)n2-c2ccc(F)cc2)cc1,"inconclusive [inhibitor, single point]",–
CCc1sc(C(=O)NNC(=O)CNC(=O)c2ccccc2F)cc1C,"inconclusive [inhibitor, full curve]",–
O=C(CSc1nc(NS(=O)(=O)c2ccccc2)cc(=O)[nH]1)Nc1ccc(Cl)cc1,"inconclusive [inhibitor, single point]",–
CCOc1ccc(S(=O)(=O)NCc2ccccc2)cc1C(N)=O,–,inconclusive: -15.1% [inhibitor]
COc1cccc(NC(=O)CSc2nnc(COc3ccc4c(c3)CCCC4)o2)c1,–,inactive: 0.081%
NS(=O)(=O)c1ccc(CCNc2nn3c(-c4cccc(OC(F)(F)F)c4)cnc3s2)cc1,–,inactive: -8.86%
Cc1ccc(NC(=S)NNC(C)(C)C)cc1,–,inactive: 20.9%
Cn1c(=NC(=O)CCS(=O)(=O)c2ccccc2)sc2cc(F)ccc21,–,inactive: 1.59%

SMILES,Potency,"activity change, negative = inhibition"
Cc1oc(-c2ccc(Cl)cc2)nc1CS(=O)CC(=O)NC1CC1 (centres undefined),–,inactive: -14.5%
CN(C)C(=O)c1cccc(-c2cnc3c(NC=O)cc(-c4ccccc4Cl)cn23)c1,"inconclusive [inhibitor, partial curve]",–
CCOC(=O)C(C(C)C)C(N)Cc1ccc(F)cc1 (centres undefined),"inconclusive [inhibitor, single point]",–
O=S(=O)(/N=C(/Nc1cccc2ccccc12)c1ccccc1)c1ccc(F)cc1,"inconclusive [inhibitor, full curve, poor fit]",–
Nc1nc(=O)n(C2CCC(CO)O2)cc1F (centres undefined),–,inactive: -11.9% [at 57.5 µM]
COc1ccc(C(C(=O)NC2CCCC2)N(Cc2ccccc2)C(=O)c2snc(C(N)=O)c2N)cc1OC (centres undefined),"inconclusive [inhibitor, full curve, poor fit]",–
O=C(Cc1cc(=O)[nH][nH]1)N/N=C/C=C/c1ccccc1,"inconclusive [inhibitor, partial curve, poor fit]",–
O=C(Cc1cccs1)Nc1cccc(C(=O)Nc2ccco2)c1,–,inactive: 8.53%
COc1cc(S(=O)(=O)NCc2cccnc2)ccc1F,–,inactive: -9.83%
c1ccc(COc2ccc(CN3CCN(c4ccccn4)CC3)cc2)cc1,"inconclusive [inhibitor, single point]",–
COc1ccccc1Nc1nnc(SCC(=O)N2CC(=O)Nc3ccccc32)s1,"inconclusive [inhibitor, single point]",–
CN(Cc1cccnc1)Cc1cn(C)nc1-c1ccc(Oc2ccccc2)cc1,"inconclusive [inhibitor, full curve]",–
CCOc1ccc(S(=O)(=O)N2CCN(C(=O)c3cc(C4CC4)nn3-c3ccccc3)CC2)cc1,–,inactive: -25.7%
C=CCn1c(SCC(=O)O)nnc1-c1cccs1,–,inactive: 6.28%
CC(/C=C1\SC(=S)N(c2ccc(C(=O)O)cc2)C1=O)=C\c1ccccc1,"inconclusive [inhibitor, partial curve]",–
O=C(NC1CCC(O)CC1)c1cccc2cccnc12 (centres undefined),"inconclusive [inhibitor, partial curve, poor fit]",–
O=C(Nc1cccc(F)c1)C1CCN(C(=O)c2ccccc2Cl)CC1,"inconclusive [inhibitor, single point]",–
Cn1c(SCC(=O)Nc2ccccc2)nc2ccccc2c1=O,"inconclusive [inhibitor, single point]",–
CN(c1ccccc1)S(=O)(=O)c1cc(C(=O)N2CCN(c3ncccn3)CC2)ccc1Cl,"inconclusive [inhibitor, partial curve]",–
CC(C)(C)c1ccc(S(=O)(=O)Nc2ccc(C(O)(C(F)(F)F)C(F)(F)F)cc2)cc1,"inconclusive [inhibitor, full curve]",–
CC(C)(C)OC(=O)NCCCC[C@H](NC(=O)c1nc[nH]c1C(=O)NC1CCN(C(=O)OC(C)(C)C)CC1)C(=O)OC(C)(C)C,"inconclusive [inhibitor, partial curve]",–
CCOC(=O)c1cnc2ccccc2c1Nc1ccc2c(c1)OCCO2,"inconclusive [inhibitor, single point]",–
O=C(O)c1cc(S(=O)(=O)O)cc(Nc2c3ccccc3nc3ccccc23)c1O,"inconclusive [inhibitor, partial curve]",–

SMILES,Potency,"activity change, negative = inhibition"
Cc1c(C)c(C)c(S(=O)(=O)Nc2ccc3[nH]c(=O)[nH]c3c2)c(C)c1C,"inconclusive [inhibitor, full curve, poor fit]",–
Cc1nn(-c2ccccc2)c(Cl)c1/C=N/Nc1nnc(C)c(=O)[nH]1,"inconclusive [inhibitor, single point]",–
S=C(Nc1ccc(N2CCOCC2)cc1)Nc1ccc2nc(-c3ccco3)c(-c3ccco3)nc2c1,"inconclusive [inhibitor, partial curve]",–
Cc1nc2ccccn2c1C(=O)Nc1ccc2c(c1)OCCO2,–,inactive: -5.85%
N/C(=N\OC(=O)c1cccc2ccccc12)c1ccccn1,–,inactive: 2.1%
Cc1cccn2c(=O)c3cc(C#N)c(=NC(=O)c4ccccc4)n(Cc4ccco4)c3nc12,active: 89.1 µM,–
CNc1ccc(/C=C(\CCC(=O)O)c2nc3ccccc3s2)cc1[N+](=O)[O-],active: 44.7 µM,–
Cc1ccc(Nc2nc(N)nc(CN3CCN(c4ccccc4)CC3)n2)cc1Cl,–,inactive: -4.6%
O=C(O)Cc1ccc2c(c1)N(S(=O)(=O)c1cccs1)CC(C(=O)O)O2 (centres undefined),"inconclusive [inhibitor, single point]",–
Cc1ccc(OCc2ccc(-c3ccccc3)cc2)c([N+](=O)[O-])n1,"inconclusive [inhibitor, single point]",–
Nc1nncn1C(=O)c1ccc(Cl)cc1Cl,"inconclusive [inhibitor, single point]",–
COc1ccc(/C=N/NC(=O)c2[nH]c3ccc(Br)cc3c2-c2ccccc2)c(C(=O)O)c1OC,active: 79.4 µM,–
CCN1/C(=C/c2ccc3ccccc3[n+]2CC)C=Cc2ccccc21,"inconclusive [inhibitor, partial curve]",–
COc1ccc(Oc2coc3c(CN(C)C)c(O)ccc3c2=O)cc1,–,inactive: -8.56%
O=C(Nc1ccc(OCC(F)(F)C(F)F)c(C(F)(F)F)c1)c1ccc(Cl)cc1,"inconclusive [inhibitor, full curve]",–
COc1ccc2cc3cc(C(=O)N4CCN(Cc5ccc6c(c5)OCO6)CC4)oc3nc2c1,"inconclusive [inhibitor, partial curve, poor fit]",–
COc1ccccc1-c1cn[nH]c1-c1ccc(O)cc1O,–,inactive: 2.17%
CS(=O)(=O)c1ccc(C(=O)OCC(=O)NCc2cccs2)cc1[N+](=O)[O-],"inconclusive [inhibitor, full curve]",–
COc1ccc(C(C)=O)cc1CC(=O)N(Cc1ccccc1)c1ccccc1,–,inactive: 6.14%
CC(=O)ON=C1C=CC(=C(C#N)c2ccccc2)C=C1,"inconclusive [inhibitor, single point]",–
Cc1c(OCc2ccc(C(=O)O)cc2)ccc2c(-c3ccccc3)cc(=O)oc12,–,inactive: -15.9%
O=C(CCC1CCCC1)Nc1ccc([N+](=O)[O-])cn1,–,inactive: 103%
Cc1nc(C)c(-c2ccc(SCc3ccc([N+](=O)[O-])cc3)nn2)s1,–,inactive: -15.4%
